# Whole data set: some 4,500 sequences, median “median log2 fold change of GCK-ALFA target abundance (FLAG IP / Myc IP barcode read proportion)” near 0.078, cut for the lowest 2% near -0.6. Some of the results follow.
# B1: GBRAP_160_4771 (protein)
# chain: SEELKKLKKEVKEIFEEYIKLLKEVPQEEALTIVNGALGEVLMEVMSSDAVSDELEEEIGKILDEAEKEAEKNKDAPVEVFIKILKEAKEKILELIEKEI
# B2: GBRAP_184_5236 (protein)
# chain: KTLDVTVKAKNEEELKEKLEEVRKKAEEEGAKVNLIVEVEELTEEKVKVLTEMIKEMAKKGLLTLVEVESSTPIKEEHIDKLVEAADEAGVKLVIAEPDE
# B3: GBRAP_184_5261 (protein)
# chain: MVLERTIEAKNVEELRAKLAEVKAEALATGADVIIHLKVEKLTKEMIDALFAEIEALRAAGYTGKVTIGIDAEVTEEMVDYILEKADEAGVNVTIALSEE
# B4: GBRAP_160_4263 (protein)
# chain: SEELEELIKDLEEDREEILSLIDEISAEEAKTFAVVELGSHLLEAIDLEIVTDEEEEELAKIIDDLEAELKANENASKEEIKAIITKHYDKFKEILEKSK
# B5: GBRAP_125_3015 (protein)
# chain: SREELAAAMGRIARALGFSEGDVAELERLTLEHGVKGTLIALALAEGDEELADLLEKLSEEEVAAVVLEAAAELAAHPDLTPEEVRALLLRLAREALAAS
# B6: GBRAP_177_5013 (protein)
# chain: SVVEQAEAALDDPEALLALLESLDVSELSREEVLEVIRIAARAIEKHGYREELVNALAKLMVAAMKEHGISEAELFAIVIEEVDADTADKIWEKVLELED
# B7: GBRAP_80_6785 (protein)
# chain: MEEEIEKKIKEIEKEDPEVAKVVREIVELLREVGVPLEIILELVEDFLDALKLPKETRLKIAKETLKFAEELAEEKDRLSPEDIGRLVLAEALTLIELAE
# B8: GBRAP_160_4576 (protein)
# chain: SPELEKLIEEINELTEEALEWLEDETYEQRLAIVRVLGGDILLLLEENPAVSDELEDEAAKIWDELIATIDANPDLTAEEIKELVRKATEKIIELIKKEA
# Molecular target: GABARAP, O95166
# Sequence (O95166 whole entry, the tested form may be a part): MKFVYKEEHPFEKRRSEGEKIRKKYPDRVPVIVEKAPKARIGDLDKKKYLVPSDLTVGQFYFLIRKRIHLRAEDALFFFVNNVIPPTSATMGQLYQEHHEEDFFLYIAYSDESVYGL
# Experiment: median log2 fold change of GCK-ALFA target abundance (FLAG IP / Myc IP barcode read proportion) (log2 ratio); each designed protein is fused to an ALFA-tag nanobody in HEK293 cells to bring the named protein to FLAG-tagged glucokinase (GCK); Myc marks an untargeted standard; higher = target protein stabilised (more abundant)
# Conditions: target protein: 3xFLAG-MCP-GCK-ALFA reporter; HEK293 landing pad (RPLP)
# Method in brief: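 Binders fused to an ALFA nanobody were recombined as a library into HEK293 landing-pad cells, which were induced with 2 μg mL^−1 doxycycline and then transfected to express a FLAG-tagged target and a Myc-tagged standard. After 48 h, circular RNA barcodes recovered by anti-FLAG and anti-Myc immunoprecipitation of lysates were reverse transcribed, amplified and sequenced. Each binder's target abundance is the median log2 ratio of FLAG to Myc barcode read proportions, from barcodes present at ≥10^−7 in both replicates, binders carrying ≥3 barcodes per replicate, a 10^−6 pseudocount and pooled replicates.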
row,Binder,median log2 fold change
1,B1,-0.271
2,B2,-0.0251
3,B3,0.25
4,B4,-0.132
5,B5,-0.0109
6,B6,0.19
7,B7,0.222
8,B8,-0.142

# — the supplement of paper PMC12632987
